23 compounds from ChEMBL document CHEMBL4888484, “Replenishing the malaria drug discovery pipeline: Screening and hit evaluation of the MMV Hit Generation Library 1 (HGL1) against asexual blood stage Plasmodium falciparum ,using a nano luciferase reporter read-out” (2022) can be followed below.

Each structure is given as a SMILES string. The campaign covered roughly 150,000 compounds. About 540 (0.36%) showed an effect of 50% or more. Some of the results follow.

This experiment has as its system Plasmodium falciparum. Nature of the experiment: Primary screen in NF54 nanoGlo assay, in single point, at 2uM, 72h; a lower Z score goes with more inhibition. The note with it: timepoint 72 hour. The class given is functional, Erythrocyte.
Turning to `COCCN(CCOC)C(=O)NC(=O)c1ccc(Cl)cc1`, the % Inhibition – broadly, the change of the read-out against control, counted positive when it falls – stood at 4% and the Z score is recorded as -0.6.

Consider `N#Cc1c(NC(=O)CN2CCN(c3ccccc3F)CC2)sc2c1CCCC2`, for which the “% Inhibition” value was -15% and the Z score is given as 1.71.

Take `CN=C(NC(=O)Nc1c(C)cccc1C)NC(=O)Nc1c(C)cccc1C`: the “% Inhibition” value is given as -12% and the Z score was found to be 2.31.

With `CCN1C[C@@H](NC(=O)c2coc(COc3ccc4ncccc4c3)n2)CC1=O`, the “% Inhibition” value was -9% and the Z score is given as 1.17.

Turning to `COc1ccc(CN2CCN3C(=O)N(Cc4ccc(C)cc4)C[C@H]3C2)cn1`, the “% Inhibition” value was found to be 14% and the Z score is given as -2.25.

Turning to `COc1ccc2[nH]c(=O)c(CN3CC(n4cccn4)C3)cc2c1`, the “% Inhibition” value was -9% and the Z score is reported as 1.43.

For the compound `CC[C@H](OC1CCCCC1)C(=O)Nc1ccccc1-c1noc(C)n1`, the “% Inhibition” value was -11% and the Z score was found to be 0.94.

Regarding `CC[C@@H]1Oc2ccc(NC(=O)Cc3cccc(OC)c3)cc2CN(Cc2ccc3c(c2)OCO3)C1=O`, the “% Inhibition” value was -7% and the Z score turned out to be 0.8.

As for `CC(C)CNC(=O)c1cccc(CN2CCC[C@](CO)(c3ccccc3)C2)c1`, the “% Inhibition” value is -12% and the Z score is listed as 2.29.

Consider `OC(CN1CCCC1c1nc2ccccc2s1)c1ccccc1` (stereo unspecified), for which the “% Inhibition” value is recorded as -15% and the Z score is reported as 2.29.

For the compound `CN1C(=O)[C@@H]2CCCCN2c2ccc(C(=O)O)cc21`, the “% Inhibition” value was -5% and the Z score amounted to 0.63.

On to `C=CCC(CC=C)C(=O)Nc1cccc(Cl)c1C(N)=O`, for which the “% Inhibition” value is 2% and the Z score was -0.19.

For the compound `CC(COC1CCOC1)NC(=O)C1CCC2CCCCC2C1` (stereo unspecified), the “% Inhibition” value was -14% and the Z score was determined as 2.17.

`O=C(Nc1ccc([C@@H](O)c2cccs2)cc1)C1CCOCC1`: the “% Inhibition” value was 2% and the Z score is -0.37.

For `Cc1cc(C)n(Cc2ccc(C(=O)N3CCCCCC3)o2)n1`, the “% Inhibition” value is 30% and the Z score was -3.99.

As to `CC(C)c1ccc(NC(=O)[C@H]2C[C@H]3CCCN3[C@@]23C(=O)Nc2ccccc23)cc1`, the “% Inhibition” value is reported as -12% and the Z score was 1.18.

`O=C(COc1ccccc1)NC1CCC(Oc2cnccn2)CC1` (stereo unspecified): the “% Inhibition” value is 0% and the Z score was -0.02.

Take `O=C(c1ccccc1)c1ccc2c(c1)C(=O)N(c1ccc(Cl)cc1Cl)C2=O`: the “% Inhibition” value was -9% and the Z score is listed as 1.07.

Regarding `O=C(c1ccsc1)N1CCC2(CC[C@@H]2N2CCOCC2)CC1`, the “% Inhibition” value is -20% and the Z score came out at 2.49.

For `O=C(O)[C@@H](c1ccccc1F)N1CCC(c2nc(-c3ccccc3)n[nH]2)CC1`, the “% Inhibition” value is recorded as -3% and the Z score is 0.34.

With `OC[C@]12CN(Cc3ccc[nH]3)CC[C@H]1CN(Cc1ccccc1)C2`, the “% Inhibition” value came out at 3% and the Z score is -0.41.

Consider `CCOC(=O)c1nc([C@@H](C)Cn2cc(C)cn2)no1`, for which the “% Inhibition” value is reported as -21% and the Z score was determined as 2.46.

In the case of `O=C(c1ccc(Cl)c(S(=O)(=O)N2CCCCCC2)c1)N1CCOCC1`, the “% Inhibition” value was -8% and the Z score came out at 1.2.
